First the molecules themselves.
B1: PhoQ; a variant is named by its letters at X, in order, P23837 (parent)
chain: MKKLLRLFFPLSLRVRFLLATAAVVLVLSLAYGMVALIGYSVSFDKTTFRLLRGESNLFYTLAKWENNKLHVELPENIDKQSPTMTLIYDENGQLLWAQRDVPWLMKMIQPDWLKSNGFHEIEADVNDTSLLLSGDHSIQQQLQEVREDDDDAEMTHSVAVNVYPATSRMPKLTIVVVDTIPVELKSSYMVWSWFIYVLSANLLLVIPLLWVAAWWSLRPIEALAKEVRELEEHNRELLNPATTRELTSLVRNLNRLLKSERERYDKYRTTLTDLTHSLKTPLXXLQXXLRSLRSEKMSVSDAEPVMLEQISRISQQIGYYLHRASMRGGTLLSRELHPVAPLLDNLTSALNKVYQRKGVNISLDISPEISFVGEQNDFVEVMGNVLDNACKYCLEFVEISARQTDEHLYIVVEDDGPGIPLSKREVIFDRGQRVDTLRPGQGVGLAVAREITEQYEGKIVAGESMLGGARMEVIFGRQHSAPKDE

The list shows a part of the results.

In the assay the parent is B1. Description: enrichment ratio after two sorts for PhoP signalling (ratio (wild type AVST 3.29)); higher = more functional. To be noted: with PhoP (E. coli).
For the variant HTCP, the enrichment ratio is not above 0.25. As to HSSE, the enrichment ratio is not above 0.25. With MTEN the figure was not above 0.25. Regarding WSGV, the enrichment ratio is not above 0.25. Next, NLAV: not above 0.25; NKII: not above 0.25. With TACV the figure was 9.39. Next, RGTR: not above 0.25; LTHH: not above 0.25. For RRMK, the enrichment ratio was not above 0.25. Next, PPTM: not above 0.25; NYCE: not above 0.25.

For the variant GLAD, the enrichment ratio was not above 0.25.

Regarding EMRN, the enrichment ratio is not above 0.25. With SDWQ the figure was not above 0.25; with FPGI, not above 0.25. Take PGWH: the enrichment ratio was not above 0.25. With KYKR the figure was not above 0.25.

Consider HKRY, for which the enrichment ratio was not above 0.25. Next, TGYE: not above 0.25. With PTFL the figure was not above 0.25; with LQMT, not above 0.25. Next, HQDF: not above 0.25. Regarding EAQA, the enrichment ratio is not above 0.25.

For the variant PFDV, the enrichment ratio is not above 0.25. With GGNQ the figure was not above 0.25; with PHHG, not above 0.25. Next, MWLN: not above 0.25; IFKV: not above 0.25; LPYE: not above 0.25. Next, HISY: not above 0.25. Take IQAH: the enrichment ratio was not above 0.25. With IDCM the figure was not above 0.25; with RLRR, not above 0.25. Next, LIYF: not above 0.25; THWF: not above 0.25. With IIAQ the figure was not above 0.25; with YMEY, not above 0.25. As for VYAE, the enrichment ratio is not above 0.25.

As to KNNK, the enrichment ratio is not above 0.25. Next, EELQ: not above 0.25. With RVET the figure was not above 0.25; with QHRM, not above 0.25; with FMVY, not above 0.25. Next, AEEA: not above 0.25; RSYV: not above 0.25; WELT: not above 0.25. As for QRKY, the enrichment ratio was not above 0.25. With KSWA the figure was not above 0.25; with DLFQ, not above 0.25; with YIAF, 0.549. Next, RRNH: not above 0.25; MSSD: not above 0.25. Next, GDTH: not above 0.25; FGWW: not above 0.25; NNDI: not above 0.25. In the case of FEIK, the enrichment ratio is not above 0.25. With FADP the figure was not above 0.25; with QVWK, not above 0.25. In the case of SWNN, the enrichment ratio is not above 0.25. Take PNSN: the enrichment ratio was not above 0.25.

Take DYLL: the enrichment ratio is not above 0.25. With KCGC the figure was not above 0.25; with EITN, not above 0.25; with AFTS, not above 0.25. Next, LSMT: not above 0.25. With IRFQ, the enrichment ratio is not above 0.25. With DAEY the figure was not above 0.25. With IWRQ the figure was not above 0.25. Consider TFES, for which the enrichment ratio is not above 0.25. With IDTT the figure was not above 0.25; with WGSI, not above 0.25.

For GCIH, the enrichment ratio is not above 0.25. Next, TIPY: not above 0.25; GHKG: not above 0.25.

For QPDC, the enrichment ratio is not above 0.25. With SICW the figure was not above 0.25; with LWYL, not above 0.25; with WETW, not above 0.25.

For the variant RFMT, the enrichment ratio was not above 0.25. With QPYG the figure was not above 0.25; with IHKD, not above 0.25; with SIIG, 2.57. Next, HPGQ: not above 0.25. With EIQG the figure was not above 0.25; with PAAV, not above 0.25; with HLVL, not above 0.25. Regarding NPFM, the enrichment ratio was not above 0.25. As for GENC, the enrichment ratio amounted to 0.253. For INIL, the enrichment ratio was not above 0.25. With WHCH the figure was not above 0.25; with RTSV, not above 0.25.

For WGFL, the enrichment ratio was not above 0.25. Next, EFGN: not above 0.25; ESQR: not above 0.25; GWNK: not above 0.25. Next, FNVQ: not above 0.25. Next, KLQR: not above 0.25. Regarding GSWY, the enrichment ratio was not above 0.25. Next, PIMY: not above 0.25; LYWM: not above 0.25; LTLS: not above 0.25. For the variant MERG, the enrichment ratio is not above 0.25. Next, YTIG: 1.45; WLRN: not above 0.25; WYRK: not above 0.25. With SDPK the figure was not above 0.25. With QKHI the figure was not above 0.25; with MEPR, not above 0.25; with QVDN, 11.3. As for AGDM, the enrichment ratio is not above 0.25.

Turning to KDMF, the enrichment ratio was not above 0.25. On to MKVG, for which the enrichment ratio is not above 0.25.

As to PQMN, the enrichment ratio was not above 0.25. With MMDH the figure was not above 0.25; with PENE, not above 0.25. With HYIG the figure was not above 0.25; with QYLA, not above 0.25. With KTFS the figure was not above 0.25; with VGGA, not above 0.25; with KHRK, not above 0.25. On to YAFR, for which the enrichment ratio was not above 0.25. As to IPAM, the enrichment ratio was not above 0.25. On to TPCI, for which the enrichment ratio is not above 0.25. With MRHE the figure was not above 0.25; with VDKG, not above 0.25. Next, NILH: not above 0.25. With ASLF the figure was 12.2; with KKWS, not above 0.25; with PWTF, not above 0.25. Consider GKNY, for which the enrichment ratio is not above 0.25. With CIAF the figure was not above 0.25; with AKNA, not above 0.25; with YMTK, not above 0.25. For VGWK, the enrichment ratio was not above 0.25. Next, WFEW: not above 0.25; HNKT: not above 0.25; PDEN: not above 0.25. With VYDP the figure was not above 0.25; with EATA, not above 0.25; with DNQL, 1.14. With TQKY the figure was not above 0.25; with LENA, not above 0.25.

For the variant NNAD, the enrichment ratio is not above 0.25.

Consider YEML, for which the enrichment ratio is not above 0.25. Consider LMVH, for which the enrichment ratio was not above 0.25.

As to IMIH, the enrichment ratio was not above 0.25. With IDAW the figure was not above 0.25; with WKVF, not above 0.25. As for SMCS, the enrichment ratio was 10.4. In the case of SWIE, the enrichment ratio was not above 0.25. Consider QITF, for which the enrichment ratio was not above 0.25.

Consider FIPN, for which the enrichment ratio was not above 0.25.
